Data published in publication PMC4336329 (PLoS ONE, 2015).
Hit rate of the full screen: of about 310,000 compounds, about 14,000 (4.5%) showed an effect of 50% or more. Effects have a minus sign here. The list shows a part of the results.

What follows are compounds tested against human ether-à-go-go-related gene (hERG) potassium channel (human, UniProt Q12809) (assay: primary screen, population patch clamp on CHO cells stably expressing hERG).
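Also: peak tail current of the secondary pulse compared with the same well before compound.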

human ether-à-go-go-related gene (hERG) potassium channel, sequence (Q12809 whole entry, looked up): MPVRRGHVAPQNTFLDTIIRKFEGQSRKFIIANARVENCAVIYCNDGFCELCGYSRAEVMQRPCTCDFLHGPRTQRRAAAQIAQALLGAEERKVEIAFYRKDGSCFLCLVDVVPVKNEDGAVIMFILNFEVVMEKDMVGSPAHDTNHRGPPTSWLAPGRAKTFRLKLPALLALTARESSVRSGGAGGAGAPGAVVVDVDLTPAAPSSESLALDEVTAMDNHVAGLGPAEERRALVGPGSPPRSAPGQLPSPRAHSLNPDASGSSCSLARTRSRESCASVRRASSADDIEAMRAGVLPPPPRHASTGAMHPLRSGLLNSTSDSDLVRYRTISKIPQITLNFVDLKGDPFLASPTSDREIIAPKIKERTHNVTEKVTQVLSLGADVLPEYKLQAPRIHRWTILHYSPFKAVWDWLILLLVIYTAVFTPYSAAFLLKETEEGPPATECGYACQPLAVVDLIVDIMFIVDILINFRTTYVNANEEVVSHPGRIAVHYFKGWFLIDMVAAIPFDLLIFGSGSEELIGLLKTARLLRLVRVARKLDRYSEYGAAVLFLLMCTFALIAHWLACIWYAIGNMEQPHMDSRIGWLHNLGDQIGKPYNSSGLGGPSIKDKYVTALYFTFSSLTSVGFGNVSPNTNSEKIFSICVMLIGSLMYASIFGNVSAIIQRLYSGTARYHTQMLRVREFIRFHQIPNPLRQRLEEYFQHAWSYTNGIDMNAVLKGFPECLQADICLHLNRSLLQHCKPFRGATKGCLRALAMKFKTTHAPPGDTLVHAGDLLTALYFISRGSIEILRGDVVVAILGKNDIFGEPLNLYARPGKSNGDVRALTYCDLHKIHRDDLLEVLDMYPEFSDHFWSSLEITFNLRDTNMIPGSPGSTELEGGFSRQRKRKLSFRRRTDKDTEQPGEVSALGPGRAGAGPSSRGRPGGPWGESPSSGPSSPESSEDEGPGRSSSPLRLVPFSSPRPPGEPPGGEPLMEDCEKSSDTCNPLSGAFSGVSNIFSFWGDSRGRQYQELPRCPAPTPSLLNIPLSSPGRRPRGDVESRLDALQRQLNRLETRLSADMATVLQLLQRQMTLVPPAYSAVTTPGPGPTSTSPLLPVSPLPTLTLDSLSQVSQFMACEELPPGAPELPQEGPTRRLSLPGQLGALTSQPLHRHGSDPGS

First: COc1cccc(C(=O)NC(C)c2ccc(-c3ccccc3)cc2)c1OC (stereo not shown)
Second: COc1ccc(/C=C/C(=O)Oc2ccc(/C=N/NC(=O)c3ccccc3)cc2)cc1OC
The “hERG current change (%, negative = inhibition) at 10uM” value of the first is higher: 18.5% for the first, -0.151% for the second.

Going from `COc1ccc(C2CC(c3ccc(Br)cc3)Nc3nc(N)nn32)cc1` (stereo not shown) to `Cc1ccc(C2NC(=S)NC(c3ccc(C)cc3)C23C(=O)NC(=O)NC3=O)cc1` (stereo not shown), the “hERG current change (%, negative = inhibition) at 10uM” value rises from -43.5% to 12.3%.

Compared with `COc1ccc(N2CCN(S(=O)(=O)c3ccc(Cl)s3)CC2)cc1`, `CCCCC(=O)Nc1ccc(N2CCN(S(C)(=O)=O)CC2)cc1` is lower in “hERG current change (%, negative = inhibition) at 10uM” value: 24.2% for the first, -19.8% for the second.

Compared with `Cc1c(Cl)c(=O)oc2cc(OCC(=O)NCc3cccs3)ccc12`, `Cc1ccc2c(c1)N(CCC(=O)NCc1cccs1)C(=O)C(C)O2` (stereo not shown) is higher in “hERG current change (%, negative = inhibition) at 10uM” value: -1.92% for the first, 9.51% for the second.

First: O=C(CCc1nnc(Cc2ccc(-c3ccccc3)cc2)o1)NCCc1cccnc1
Second: Cc1ccc(CNC(=O)CCC(=O)n2ncc3cc(C)ccc32)cc1
The “hERG current change (%, negative = inhibition) at 10uM” value of the first is lower: -18.9% for the first, 2.19% for the second.

Compared with `CCc1nnc(NC(=O)/C=C/c2cccs2)s1`, `Cc1nn(-c2ccccc2)c(Cl)c1C(=O)Nc1nnc(C2CCCCC2)s1` is lower in “hERG current change (%, negative = inhibition) at 10uM” value: 17.9% for the first, 13.2% for the second.

Going from `CN(C)c1ccc(C(CNC(=O)c2ccc(C#N)cc2)c2c[nH]c3ccccc23)cc1` (stereo not shown) to `Cc1ccccc1-c1nc2ccccc2c(=O)n1/N=C/c1ccc([N+](=O)[O-])cc1`, the “hERG current change (%, negative = inhibition) at 10uM” value falls from -16.8% to -36.8%.

Going from `COc1ccc(C(CNC(=O)C(C)(C)Oc2ccc(Cl)cc2)N2CCCC2)cc1` (stereo not shown) to `COc1ccc(S(=O)(=O)N2CC(C(=O)O)Oc3ccc(Cl)cc32)cc1` (stereo not shown), the “hERG current change (%, negative = inhibition) at 10uM” value rises from -50.1% to 21%.

First: Cc1cccc2cc(/C=C/C(=O)c3ccco3)c(Cl)nc12
Second: CS(=O)c1ccccc1-c1nc(-c2cccc(Cl)c2)no1 (stereo not shown)
The “hERG current change (%, negative = inhibition) at 10uM” value of the first is higher: 12.9% for the first, -27.1% for the second.

Compared with `Cn1c(SCC(=O)NC2CCCCC2)nnc1-c1ccccn1`, `O=C(CC1C(=O)NCCN1Cc1ccc(Cl)c(F)c1)NC1CCCCC1` (stereo not shown) is lower in “hERG current change (%, negative = inhibition) at 10uM” value: 4.32% for the first, -8.15% for the second.

Going from `O=C(CCC(=O)N1CCC2(CC1)OCCO2)Nc1nnc(C2CCCCC2)s1` to `CCOC(=O)N1CCN(C(=O)C2CCC(=O)N(CCCN3CCCC3=O)C2)CC1` (stereo not shown), the “hERG current change (%, negative = inhibition) at 10uM” value falls from 15.8% to 9.22%.

Going from `COc1cccc(N=Nc2ccc3ccccc3c2O)c1` to `Cc1ccc(-c2nc3c(=O)n(C)c4ccccc4c3o2)cc1`, the “hERG current change (%, negative = inhibition) at 10uM” value falls from 32.2% to 22.3%.

Going from `COc1ccc(-c2noc3c2-c2nc(C(C)C)sc2CC3)cc1` to `COc1ccc(Cc2nnc(SCC(=O)c3cccc([N+](=O)[O-])c3)n2C)cc1`, the “hERG current change (%, negative = inhibition) at 10uM” value falls from 7.86% to 0.41%.

Going from `O=c1[nH]c(=S)[nH]c(O)c1N=Nc1cccc(S(=O)(=O)N2CCOCC2)c1` to `CCOC(=O)c1ccc(NC(=O)c2cc(S(=O)(=O)N3CCOCC3)cn2C)cc1`, the “hERG current change (%, negative = inhibition) at 10uM” value falls from 9.03% to 4.76%.

First: CCn1nc(C(=O)Nc2ccc(S(=O)(=O)Nc3ncccn3)cc2)c2ccccc2c1=O
Second: CC(=O)Nc1ccc(NC(=S)Nc2ccccc2)cc1
The “hERG current change (%, negative = inhibition) at 10uM” value of the first is higher: 18.1% for the first, -19.5% for the second.

Going from `Cc1cc(CNC(=O)c2cc(COc3ccc(F)c(F)c3)on2)nn1C` to `CCOC(=O)c1cnn2c(C(F)(F)F)cc(-c3cn(C)nc3C)nc12`, the “hERG current change (%, negative = inhibition) at 10uM” value rises from -23.5% to -6.43%.

Compared with `Cc1onc(-c2c(Cl)cccc2Cl)c1C(=O)N=C(N)N1CCCC1`, `COC(=O)C1CCN(c2ccc(C(N)=O)cc2[N+](=O)[O-])CC1` is lower in “hERG current change (%, negative = inhibition) at 10uM” value: 10.7% for the first, -5.64% for the second.

Going from `COc1ccccc1NC(=O)N1CCCC(c2nc3c(nnn3Cc3ccc(C)cc3)c(=O)[nH]2)C1` (stereo not shown) to `O=C(NCc1ccccc1)C1CCCN(C(=O)Nc2ccccc2)C1` (stereo not shown), the “hERG current change (%, negative = inhibition) at 10uM” value rises from -18.6% to 12.9%.

First: C/C(=N\NC(=O)OC(C)(C)C)c1ccc[nH]1
Second: CC(=O)C1C(c2ccc(F)cc2)C2C(C)=NN=C2CC1(C)O (stereo not shown)
The “hERG current change (%, negative = inhibition) at 10uM” value of the first is lower: -2.93% for the first, 15.9% for the second.

Going from `O=C1c2ccccc2NC(c2ccccn2)N1c1ccc(Cl)cc1` (stereo not shown) to `S=c1[nH]nc(-c2cc(-c3ccccc3)n[nH]2)n1/N=C/c1ccc(Cl)c(Cl)c1`, the “hERG current change (%, negative = inhibition) at 10uM” value rises from -1.85% to 11.4%.

Going from `CCOC(=O)C(NC(=O)CCl)(Nc1sc(C)c(CC)c1C#N)C(F)(F)F` (stereo not shown) to `Cc1nc(S(=O)(=O)N(C)Cc2ccccc2)c(C#N)c(C)c1Cl`, the “hERG current change (%, negative = inhibition) at 10uM” value rises from -18.4% to 24.6%.

Going from `CCCCC1(COC(=O)CCC(=O)O)C(=O)N(c2ccccc2)N(c2ccccc2)C1=O` to `CC(C)CCN(C(=O)c1cc(=O)[nH]c2ccccc12)c1c(N)n(Cc2ccccc2)c(=O)[nH]c1=O`, the “hERG current change (%, negative = inhibition) at 10uM” value falls from 21.9% to -7.4%.

First: CC[n+]1c(C)n(C)c2cc(S(=O)(=O)N(C)C)ccc21.[I-]
Second: CNC(=O)COC(=O)[C@@H](Nc1ccc(S(=O)(=O)N2CCOCC2)cc1[N+](=O)[O-])C(C)C
The “hERG current change (%, negative = inhibition) at 10uM” value of the first is higher: 9.18% for the first, -9.16% for the second.

Compared with `NC1=C([N+](=O)[O-])C(c2ccc3c(c2)OCO3)C2=C(CCCC2=O)O1` (stereo not shown), `COC(=O)C1(C)NC(c2ccc(O)cc2)C2C(=O)N(c3ccc4c(c3)OCCO4)C(=O)C21` (stereo not shown) is lower in “hERG current change (%, negative = inhibition) at 10uM” value: 10.8% for the first, 4.43% for the second.

Going from `O=c1/c(=C\c2cc([N+](=O)[O-])cc([N+](=O)[O-])c2O)sc2nc3ccccc3n12` to `S=C(NCc1ccccn1)Nc1cccc(Cl)c1`, the “hERG current change (%, negative = inhibition) at 10uM” value falls from 13.4% to 2.65%.

Going from `CCC1(C(=O)OC)NC(c2ccco2)C2C(=O)N(c3ccc(F)cc3)C(=O)C21` (stereo not shown) to `Cc1ccc(C(=O)NC(=S)NCc2ccco2)cc1`, the “hERG current change (%, negative = inhibition) at 10uM” value rises from 6.75% to 13.7%.

First: CC1(C)CN(c2ccc(CC#N)cc2)C1=O
Second: CCCN1C2CCCC1CC(NC(=O)c1cccc(OC)c1)C2 (stereo not shown)
The “hERG current change (%, negative = inhibition) at 10uM” value of the first is higher: 14.8% for the first, -16.4% for the second.

For `O=C(Nc1ccccc1Oc1ccccc1)C1=COCCO1`, the “hERG current change (%, negative = inhibition) at 10uM” value was -30.1%.
